Laboratory results: publication PMC4336329 (PLoS ONE, 2015)
About 14,000 (4.5%) of roughly 310,000 compounds showed an effect of 50% or more. Effects have a minus sign here. Some of the results follow.
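Also: peak tail current of the secondary pulse compared with the same well before compound.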

Each compound was assayed against human ether-à-go-go-related gene (hERG) potassium channel (human, UniProt Q12809) (assay: primary screen, population patch clamp on CHO cells stably expressing hERG).
human ether-à-go-go-related gene (hERG) potassium channel, sequence (Q12809 whole entry, looked up): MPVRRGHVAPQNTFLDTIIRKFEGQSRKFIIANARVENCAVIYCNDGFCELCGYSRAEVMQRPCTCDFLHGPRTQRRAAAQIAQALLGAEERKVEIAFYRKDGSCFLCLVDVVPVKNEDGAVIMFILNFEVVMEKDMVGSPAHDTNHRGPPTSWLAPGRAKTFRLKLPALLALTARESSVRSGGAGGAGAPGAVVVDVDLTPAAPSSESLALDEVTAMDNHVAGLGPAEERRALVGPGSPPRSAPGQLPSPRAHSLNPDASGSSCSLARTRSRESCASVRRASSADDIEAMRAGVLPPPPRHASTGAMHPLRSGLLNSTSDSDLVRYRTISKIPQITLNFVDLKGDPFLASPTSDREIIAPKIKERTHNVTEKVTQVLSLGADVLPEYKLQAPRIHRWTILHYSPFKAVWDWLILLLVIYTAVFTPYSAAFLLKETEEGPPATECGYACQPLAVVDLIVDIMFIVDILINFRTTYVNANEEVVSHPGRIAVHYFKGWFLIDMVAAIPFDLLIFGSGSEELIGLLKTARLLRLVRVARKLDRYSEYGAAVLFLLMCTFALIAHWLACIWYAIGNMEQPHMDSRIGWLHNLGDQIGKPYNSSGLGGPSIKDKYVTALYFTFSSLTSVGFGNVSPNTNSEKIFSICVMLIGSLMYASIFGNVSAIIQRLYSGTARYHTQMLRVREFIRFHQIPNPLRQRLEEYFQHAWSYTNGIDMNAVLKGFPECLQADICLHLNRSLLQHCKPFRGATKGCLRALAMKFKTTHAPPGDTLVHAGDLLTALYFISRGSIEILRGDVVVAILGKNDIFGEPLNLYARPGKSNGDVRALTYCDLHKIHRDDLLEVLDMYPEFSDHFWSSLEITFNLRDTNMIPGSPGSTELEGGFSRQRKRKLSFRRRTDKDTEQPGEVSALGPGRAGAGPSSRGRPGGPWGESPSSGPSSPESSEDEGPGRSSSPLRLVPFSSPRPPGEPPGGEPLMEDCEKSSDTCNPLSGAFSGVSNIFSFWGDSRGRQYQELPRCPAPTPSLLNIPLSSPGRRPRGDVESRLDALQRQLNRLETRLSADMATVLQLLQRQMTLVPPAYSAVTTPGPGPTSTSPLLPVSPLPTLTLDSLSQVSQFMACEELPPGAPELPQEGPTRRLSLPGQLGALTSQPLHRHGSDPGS
CN(C)S(=O)(=O)N1CCC(c2ccc(F)cc2)C(COc2ccc3c(c2)OCO3)C1 (centres unmarked) was tested, and the “hERG current change (%, negative = inhibition) at 10uM” value was 10.2%.
With Cc1nnc(SCC(=O)N2CCN(S(=O)(=O)c3ccc(Cl)cc3)CC2)n(N)c1=O the “hERG current change (%, negative = inhibition) at 10uM” value was -19%.
In the case of CS(=O)(=O)c1ccccc1-c1nc(-c2cccc(Cl)c2)no1, the “hERG current change (%, negative = inhibition) at 10uM” value is reported as -12.9%.
CCOCN(C(=O)Cn1cnc2ccccc21)c1c(C)cccc1CC was tested, and the “hERG current change (%, negative = inhibition) at 10uM” value was 1.74%.
With COc1cc(C2C3=C(CCCC3=O)OC3=C2C(=O)CCC3)ccc1OCC(=O)Nc1ccccc1 the “hERG current change (%, negative = inhibition) at 10uM” value was -30.9%.
For CCCn1c(NC(=O)CN2C(=O)NC3(CCCCC3)C2=O)nc2ccccc21, the “hERG current change (%, negative = inhibition) at 10uM” value was -19.1%.
With O=C(Cn1cc(C(=O)C2CC2)c2ccccc21)NC1CCCC1 the “hERG current change (%, negative = inhibition) at 10uM” value was 16.3%.
O=C(Nc1ccc2ccccc2n1)Nc1ccccc1F was tested, and the “hERG current change (%, negative = inhibition) at 10uM” value was 16.6%.
For O=C(O)c1cccc(N2CCCCS2(=O)=O)c1, the “hERG current change (%, negative = inhibition) at 10uM” value was 15.8%.
For OCCC1CN(Cc2cc(F)ccc2-n2cccn2)CCN1C1CCCC1 (centres unmarked), the “hERG current change (%, negative = inhibition) at 10uM” value was -29%.
Cc1cc(C)c2c(N)c(C(=O)Nc3ccc([N+](=O)[O-])cc3)sc2n1 was tested, and the “hERG current change (%, negative = inhibition) at 10uM” value was 20.2%.
With Cc1ccc2c(c1)cc(CN(Cc1ccc3c(c1)OCO3)C(=O)c1ccccc1)c1nnnn12 the “hERG current change (%, negative = inhibition) at 10uM” value was -11.5%.
For CCCCCCCCC(=O)NCc1ccc(O)c(OC)c1, the “hERG current change (%, negative = inhibition) at 10uM” value was -17.1%.
COC(=O)c1ccc(-n2c(C)cc(C(=O)CSc3cccc[n+]3[O-])c2C)cc1 was tested, and the “hERG current change (%, negative = inhibition) at 10uM” value was 21.2%.
For Cc1ccc2c(c1)nnc1nnc(SCC(=O)O)n12, the “hERG current change (%, negative = inhibition) at 10uM” value was 3.45%.
In the case of Cc1ccc(NC(=O)CCSc2nnc(-c3ccco3)o2)cc1, the “hERG current change (%, negative = inhibition) at 10uM” value is reported as 9.02%.
For CCOc1ccc(-n2c(C)cc(C(=O)NS(=O)(=O)c3ccc(C)cc3)c2C)cc1, the “hERG current change (%, negative = inhibition) at 10uM” value was -32.3%.
O=C(CN1CCN(S(=O)(=O)c2ccccc2F)CC1)Nc1ccnn1C1CCCC1 was tested, and the “hERG current change (%, negative = inhibition) at 10uM” value was -25.8%.
In the case of CCC(=O)c1cn(CC(=O)Nc2cc(C)ccc2C)c2ccccc12, the “hERG current change (%, negative = inhibition) at 10uM” value is reported as 13.4%.
For CCCCOC(=O)c1ccc(N=Nc2c(C)c(C#N)c(O)[nH]c2=O)cc1, the “hERG current change (%, negative = inhibition) at 10uM” value was -2.34%.
For COc1ccc(S(=O)(=O)N2CCCCC2)cc1NC(=O)CCCOc1ccccc1, the “hERG current change (%, negative = inhibition) at 10uM” value was -9.13%.
COc1ccc([C@@H]2[C@@H]3C(=O)N(C(C)(C)C)C(=O)[C@@H]3[C@]3(Cc4ccc(Cl)cc4)C(=O)N(c4cccc(Br)c4)C(=O)N23)cc1 was tested, and the “hERG current change (%, negative = inhibition) at 10uM” value was 12.7%.
With O=C(CSc1nc2ccc([N+](=O)[O-])cc2[nH]1)c1ccc(Cl)cc1 the “hERG current change (%, negative = inhibition) at 10uM” value was 12.1%.
Cn1c(=O)c2ncn(CC(=O)NCCOc3ccccc3)c2n(C)c1=O was tested, and the “hERG current change (%, negative = inhibition) at 10uM” value was -4%.
In the case of COc1ccc(C(=O)CC(c2ccccc2)S(=O)(=O)c2ccc(C)cc2)cc1 (centres unmarked), the “hERG current change (%, negative = inhibition) at 10uM” value is reported as 8.03%.
In the case of CCCCNC(=S)NNC(=O)CCn1cc(C)cn1, the “hERG current change (%, negative = inhibition) at 10uM” value is reported as 26.3%.
With CN1C(=O)C2(C(C#N)=C(N)N(c3cc(Cl)cc(Cl)c3)C3=C2C(=O)CCC3)c2ccccc21 (centres unmarked) the “hERG current change (%, negative = inhibition) at 10uM” value was 8.51%.
In the case of CC(=O)Nc1cccc(/C(C)=N/NS(=O)(=O)c2ccc(C)cc2)c1, the “hERG current change (%, negative = inhibition) at 10uM” value is reported as 23.5%.
With Cc1c(C(=O)N2CCOCC2)sc(NC(=O)C(C)C)c1C#N the “hERG current change (%, negative = inhibition) at 10uM” value was 24.9%.
In the case of Cc1nn(-c2ccccc2)c(C)c1-c1cc(C(=O)N/N=C/c2ccc(O)cc2)[nH]n1, the “hERG current change (%, negative = inhibition) at 10uM” value is reported as 0.357%.
With S=c1[nH]nc(COc2ccc(Cl)cc2)n1C1CCCCC1 the “hERG current change (%, negative = inhibition) at 10uM” value was 14.3%.
With CCN1CCc2c(sc(NC(=O)c3ccc(S(=O)(=O)N(CC)c4ccccc4)cc3)c2C(N)=O)C1 the “hERG current change (%, negative = inhibition) at 10uM” value was 15.4%.
COc1cccc(-n2nc3c(=S)[nH]nc(C)c3c2C)c1 was tested, and the “hERG current change (%, negative = inhibition) at 10uM” value was 18.3%.
Cc1ccc(/C=C/C(=O)Nc2cccnc2)o1 was tested, and the “hERG current change (%, negative = inhibition) at 10uM” value was -11.2%.
With COC(=O)c1cnc(SCc2ccc(C)cc2)n1C the “hERG current change (%, negative = inhibition) at 10uM” value was -14.2%.
For COc1cccc(C(=O)/C=C/Nc2ccc(NC(C)=O)cc2)c1, the “hERG current change (%, negative = inhibition) at 10uM” value was -6.12%.
COc1cc(CNCc2ccccn2)ccc1OCC(=O)NC1CCCCC1.Cl was tested, and the “hERG current change (%, negative = inhibition) at 10uM” value was -14.5%.
For COc1ccc(C(C)=O)cc1COC(=O)c1ccc(N)c([N+](=O)[O-])c1, the “hERG current change (%, negative = inhibition) at 10uM” value was 35.1%.
O.O=c1c(=O)n(O)c2ccccc2n1O was tested, and the “hERG current change (%, negative = inhibition) at 10uM” value was -0.56%.
With CC(=O)N1CCN(S(=O)(=O)c2ccc(Cl)cc2F)CC1 the “hERG current change (%, negative = inhibition) at 10uM” value was 12.9%.
With CC(C)CC(=O)NS(=O)(=O)c1ccc(NS(C)(=O)=O)cc1 the “hERG current change (%, negative = inhibition) at 10uM” value was 11.7%.
With Cc1cccc2nc(-c3ccco3)c(Nc3ccc4c(c3)OCO4)n12 the “hERG current change (%, negative = inhibition) at 10uM” value was 7.6%.
In the case of Fc1ccc2nc(C3CCN(Cc4nc(CC5CC5)no4)CC3)[nH]c2c1, the “hERG current change (%, negative = inhibition) at 10uM” value is reported as -51.9%.
For CCOC(=O)C1CCN(C(=S)Nc2cc(C)ccc2C)CC1, the “hERG current change (%, negative = inhibition) at 10uM” value was 2.4%.
For CC(=O)C1=C(O)C(=O)N(c2ccc(O)cc2)C1c1ccc(Cl)cc1 (centres unmarked), the “hERG current change (%, negative = inhibition) at 10uM” value was 17.4%.
In the case of CCC(C)OC(=O)C1=C(C)NC(=O)CC1c1ccccc1OC (centres unmarked), the “hERG current change (%, negative = inhibition) at 10uM” value is reported as -14.2%.
In the case of O=C(CSc1ccc(-c2cccc([N+](=O)[O-])c2)nn1)NCc1ccccc1, the “hERG current change (%, negative = inhibition) at 10uM” value is reported as -9.8%.
For CCc1nnc(SCc2ccc([N+](=O)[O-])cc2)nc1CC, the “hERG current change (%, negative = inhibition) at 10uM” value was -32.7%.
In the case of C/C=C/C=C/C(=O)OC(C)C(=O)Nc1cc([N+](=O)[O-])ccc1OC (centres unmarked), the “hERG current change (%, negative = inhibition) at 10uM” value is reported as -12.5%.
COC(=O)c1cnn2c(C(F)(F)F)cc(-c3ccc(F)cc3)nc12 was tested, and the “hERG current change (%, negative = inhibition) at 10uM” value was -8.38%.
In the case of CC1=CC(C)(C)N(C(=O)CSc2nnc(-c3ccc(C)cc3)o2)c2ccc(C)cc21, the “hERG current change (%, negative = inhibition) at 10uM” value is reported as -11.5%.
For CCOC(=O)CN(Cc1sccc1C)C(=O)Nc1ccc(OCC)cc1, the “hERG current change (%, negative = inhibition) at 10uM” value was -9.03%.
For CC(=O)Nc1ccnc(-c2cccnc2)n1, the “hERG current change (%, negative = inhibition) at 10uM” value was 7.89%.
For CC(C)CCn1nnnc1CN1CCN(C(=O)c2ccco2)CC1.Cl, the “hERG current change (%, negative = inhibition) at 10uM” value was 16.8%.
For COCC(=O)N1CCN(c2cccc(Cl)c2)CC1, the “hERG current change (%, negative = inhibition) at 10uM” value was -8.46%.
COc1ccc(/C=N/NC(=O)c2ccc(CSc3nncn3C)cc2)cc1OC was tested, and the “hERG current change (%, negative = inhibition) at 10uM” value was 6.26%.
